The structures appear in SMILES notation. Out of some 52,000 compounds screened, about 4,300 (8.3%) were called active. Rule as the data show it: active = survival mostly below about 52% (no sharp cut-off); inactive = mostly above about 56%. Some of the results follow.

The assay relates to DeltatarO mutant. Description: S. aureus survival, RN4220 and DeltatarO strains – OD600, teichoic acid synthesis inhibitors, primary screen (AID 463173). Conditions: S. aureus RN4220 wild type/DeltatarO growth, OD600, 18 h, stronger effect = lower value, screened at 18.75 µg/mL (by protocol).
For `CCCCn1c(Cc2ccccc2)nnc1SCC(=O)NC`, the survival was inactive: 73%.

With `CCNc1ccc(-c2nc(-c3ccco3)no2)cc1[N+](=O)[O-]`, the survival is inactive: 51%.

Turning to `O=C(O)CS(=O)(=O)c1nc2ccccc2s1`, the survival is inactive: 88%.

As for `CCOc1ccc(CNC(=O)c2ccc3c(c2)c(C)c(C)n3Cc2ccc(Cl)cc2)cc1`, the survival is inactive: 67%.

Turning to `O=C(NCCOCCn1c(=O)oc2ccccc21)Nc1ccc(Cl)cc1`, the survival is inactive: 81%.

For the compound `Cc1ccccc1NC(=O)c1c(NC(=O)Cc2ccccc2)sc2c1CCC2`, the survival is active: 29%.

For `C=CCN1C(=O)C(Cc2ccc(F)cc2)S/C1=N\N=C/c1ccco1` (stereo unspecified), the survival is inactive: 71%.

For the compound `CCS(=O)(=O)N1CCc2cc(C(=O)NCc3ccccc3)ccc21`, the survival is inactive: 68%.

As to `Cc1ccc(-c2nc3nc(C)cc(Nc4ccccc4O)n3n2)cc1`, the survival is inactive: 75%.

For the compound `COc1cccc(NC(=O)c2oc3ccccc3c2C)c1`, the survival was inactive: 106%.

As to `CC(=O)N1SC(N)=NC1c1ccccc1` (stereo unspecified), the survival is inactive: 97%.

In the case of `Cc1cc(C)nc(Sc2ccc3nnnn3n2)n1`, the survival is inactive: 81%.

Regarding `Cc1ccc2cc(CN(C(=O)c3cnccn3)C3CCCCC3)c(=O)[nH]c2c1`, the survival was inactive: 84%.

`CCOC(=O)c1ccccc1NC(=O)N1CCC(N2CCN(Cc3ccccc3)C(=O)C2=O)CC1`: the survival is inactive: 80%.

For `CCOC(=O)c1c(C(=O)CSc2ncc(-c3ccc(F)cc3)n2Cc2ccco2)sc2c1CCCC2`, the survival is inactive: 59%.

As to `O=C(Cn1c(=O)n(CC2CCCO2)c(=O)c2ccccc21)Nc1cccc(Cl)c1` (stereo unspecified), the survival is inactive: 79%.

Regarding `Cc1ccc(CNC(=O)c2nn(C)c3c2CS(=O)(=O)c2ccccc2-3)cc1`, the survival is inactive: 76%.

Take `CCOC(=O)c1ccc(N2C(=O)c3n[nH]c(-c4ccco4)c3C2c2ccc(O)c(OC)c2)cc1` (stereo unspecified): the survival is inactive: 118%.

In the case of `CCN(CC)CCNC(=O)c1nn(C)c2c1CS(=O)(=O)c1ccccc1-2`, the survival was inactive: 59%.

Consider `Cc1cn(C)c(CC(=O)NCc2ccccc2Cl)c1C(=O)O`, for which the survival was inactive: 66%.

As for `COc1ccc(-n2nc(C(=O)N3CCN(c4cccc(C)c4C)CC3)c3c4ccccc4n(C)c3c2=O)cc1`, the survival was inactive: 108%.

On to `O=C(CSCc1nc2cccnc2n1C1CCCCC1)NCc1cccc(Cl)c1`, for which the survival is inactive: 123%.

As for `CCC(C)OC(=O)/C(C#N)=C\c1ccc(-c2ccccc2Cl)o1` (stereo unspecified), the survival was active: 58%.

`O=C(Nc1nc2nc(-c3ccccc3)cc(=O)n2[nH]1)c1ccc(Cl)cc1`: the survival is inactive: 65%.

For the compound `CNC(=O)COc1ccc(NC(=O)CCn2nc(-c3ccc(C)cc3)c3ccccc3c2=O)cc1`, the survival was inactive: 73%.

Take `COc1cc(OC)c(NS(=O)(=O)c2cc(-c3cnc(C)o3)ccc2OC)cc1Cl`: the survival is inactive: 67%.

For `CCOc1ccc(OCC)c(NC(=O)CCC(=O)N2CCOc3ccccc32)c1`, the survival was inactive: 103%.

On to `COCCCNc1nc2c(S(=O)(=O)c3ccc(C)c(C)c3)nnn2c2ccc(Cl)cc12`, for which the survival was inactive: 104%.

Consider `Cc1ccc(NC(=O)CN2C(=O)CCn3nc(-c4cccn4C)cc32)cc1`, for which the survival is inactive: 78%.

In the case of `Cc1ccc2oc(-c3cc(NC(=O)c4ccco4)ccc3Cl)nc2c1`, the survival was active: 0%.

`CSc1ncc(C(=O)Nc2ccc(F)cc2F)c(-c2ccccc2)n1`: the survival is inactive: 71%.

For the compound `CCCC1=Nc2cc(C(=O)NCCc3ccc(OC)cc3OC)ccc2Sc2ccccc21`, the survival was inactive: 99%.

`COc1ccc(C(=O)N2CCC(c3nc(-c4ccc(S(=O)(=O)N5CCCC5)cc4)no3)CC2)cc1`: the survival was inactive: 94%.

For `COC(=O)c1cc2occc2n1Cc1cccc(C)c1`, the survival is active: -6%.

As for `COc1ccc(C(=O)Nc2ccc(-c3nc4ccccc4s3)cc2C)cc1Cl`, the survival was inactive: 48%.

In the case of `COCCNC(=O)CCN1C(=O)c2cccnc2Oc2ccc(C)cc21`, the survival is inactive: 101%.

Turning to `CCCCn1c(SCC(=O)N(C(C)C)C(C)C)nc2c1c(=O)n(C)c(=O)n2C`, the survival was inactive: 88%.

Turning to `O=c1c2ccccc2n(Cc2ccccc2F)c(=O)n1-c1cccc(F)c1`, the survival was inactive: 68%.

For `Cc1ccc(C(=O)Nc2onc3c2CCCC3)cc1`, the survival was active: 46%.

Consider `O=C(CSc1nnc2ccc3ccccc3n12)c1ccc(F)cc1`, for which the survival was inactive: 58%.

As to `COc1ccccc1CNC(=O)c1cnc2sc(N3CCCCCC3)nn2c1=O`, the survival is inactive: 75%.

With `Cc1nc2sc(C(N)=O)c(N)c2c(-c2ccc(Br)cc2)c1C(=O)Nc1ccc(Cl)cc1`, the survival was active: 10%.

Consider `Cc1cccc(NC(=O)c2ccc(-c3nc(CSc4ccccc4)c(C)o3)cc2)c1C`, for which the survival is inactive: 89%.

On to `CSc1ccc(CNC(=O)CCn2c(=O)c3cccn3c3ccc(F)cc32)cc1`, for which the survival was inactive: 59%.

As to `Cc1ccccc1C(=O)Nc1ccc2c(c1)CCCN2C(=O)c1cccs1`, the survival is inactive: 83%.

`Cc1ccc(-n2ncc3c(=O)n(CC(N)=O)cnc32)cc1`: the survival was inactive: 98%.

Take `CCOc1ccc(C(=O)c2cnc3ccc(Cl)cc3c2S(=O)(=O)c2ccc(C)cc2)cc1`: the survival is inactive: 80%.

As for `CCN(CC)c1ccc(/C=C(/C#N)C(=O)NC(C)C)o1`, the survival is inactive: 63%.

For the compound `Cc1ccc(-n2nc(CO)c(C(=O)NCCCc3ccccc3)n2)cc1`, the survival was inactive: 87%.

In the case of `O=C(NCCCO)Nc1c[nH]c2ccccc2c1=O`, the survival is inactive: 96%.

With `NC(=O)Cn1c(=O)n(CCCCCC(=O)NCc2ccccc2)c(=O)c2sccc21`, the survival is inactive: 53%.

For `Cc1ccc(-n2nc(C(=O)Nc3ccc(C)c(F)c3)c3c4ccccc4n(C)c3c2=O)cc1`, the survival is inactive: 92%.

Turning to `CC(=O)Nc1nonc1-c1nnc(SCC(=O)Nc2ccc(C)c(Cl)c2)n1-c1ccccc1`, the survival was inactive: 49%.

With `COc1ccc(-n2c(=O)c3ccccc3n(Cc3ccccc3C)c2=O)c(OC)c1`, the survival is inactive: 65%.

Turning to `CC(=O)c1ccc(NC(=O)c2ccc(-c3nc(COc4ccc(C)cc4)c(C)o3)cc2)cc1`, the survival is inactive: 84%.

`Cc1nn(-c2ccc3nnc(C)n3n2)c(C)c1CCC(=O)Nc1ccc(OC(F)(F)F)cc1`: the survival is inactive: 79%.

Regarding `COc1ccc(-c2cn3nc(N4CCCC(C(=O)NCc5ccccc5OC)C4)sc3n2)cc1` (stereo unspecified), the survival is inactive: 77%.

For the compound `Cc1occc1C(=O)NCc1ccccc1`, the survival is inactive: 97%.

With `CCOC(=O)c1cnc2c(ccc3ccccc32)c1Nc1ccc(Cl)cc1`, the survival was active: 23%.

As to `Cc1ccc(NC(=O)CS(=O)CC(=O)Nc2ccc(N3CCOCC3)cc2)cc1Cl` (stereo unspecified), the survival is inactive: 93%.

In the case of `CC(=O)Nc1ccc(NS(=O)(=O)c2c(C)nc3sccn3c2=O)cc1`, the survival is inactive: 61%.

For the compound `CCOc1ccc(CNC(=O)C2CCCN(S(=O)(=O)N(C)c3ccc(F)cc3)C2)cc1OC` (stereo unspecified), the survival was inactive: 102%.

Turning to `COc1cccc(Cn2c(NCc3ccc(C)cc3)nc3c2c(=O)n(C)c(=O)n3C)c1`, the survival is inactive: 79%.

Regarding `O=C(Nc1ccc(Cl)cc1)Nc1ccc(N2CCOCC2)cc1`, the survival is inactive: 75%.

For `Cc1ccc(NC(=O)Cn2c(=O)n(Cc3nc(C)no3)c(=O)c3cc4c(cc32)OCO4)c(Cl)c1`, the survival was inactive: 81%.

As to `Cc1cccc(C)c1NC(=O)Cn1c(=O)n(Cc2ccco2)c(=O)c2ccc(C(=O)NC3CCCC3)cc21`, the survival was inactive: 94%.

In the case of `CC1Cc2cc(S(=O)(=O)CCC(=O)Nc3ccc(F)c(Cl)c3)ccc2N1C(=O)C1CC1` (stereo unspecified), the survival was inactive: 66%.

As to `CCC(=O)N1c2ccccc2NC2=C(C(=O)CC(C)(C)C2)C1c1ccccn1` (stereo unspecified), the survival is inactive: 82%.

Regarding `Cc1ccc(S(=O)(=O)c2nc(-c3ccco3)oc2SCC(=O)Nc2ccc(F)cc2)cc1`, the survival was inactive: 75%.

As for `O=C(CCn1c(=O)c2sccc2n(Cc2cccc(F)c2)c1=O)NCc1ccc2c(c1)OCO2`, the survival was inactive: 97%.

For `COC(=O)c1cc(-c2ccc(OC)c(OC)c2)c2c(=O)[nH]c(=O)n(C)c2n1`, the survival is inactive: 94%.

On to `CCC(=O)N1CCc2cc(S(=O)(=O)NC(CC(C)C)C(=O)NCc3ccc(F)cc3)ccc21` (stereo unspecified), for which the survival was inactive: 80%.

Regarding `COc1ccc(C(=O)Nc2noc3ccccc23)cc1`, the survival was inactive: 69%.

Consider `Cc1cccc(NC(=O)CSc2nccn2-c2cccc(Cl)c2)c1C`, for which the survival was inactive: 85%.

`CCOc1cc(C2c3c(-c4ccccc4O)n[nH]c3C(=O)N2Cc2cccnc2)ccc1O` (stereo unspecified): the survival was inactive: 93%.

Turning to `CCC(C(=O)NCc1ccccc1Cl)n1nc(C)c2sc3ccccc3c2c1=O` (stereo unspecified), the survival is inactive: 103%.

Take `Cc1ccc(NC(=O)c2sc(-n3nc(C)c(Cc4ccc5c(c4)OCO5)c3C)nc2C)cc1C`: the survival was inactive: 100%.

Turning to `C=CCC(NCc1ccco1)c1ccccc1` (stereo unspecified), the survival was inactive: 69%.

On to `Fc1ccc(Cn2c(-c3cccc(Br)c3)nc3ccccc32)cc1`, for which the survival is inactive: 109%.

Consider `CCOc1ccc(CCNC(=O)Cn2nc(CC)n3c(cc4sccc43)c2=O)cc1`, for which the survival is inactive: 131%.

Take `O=C(Nc1c2c(nn1-c1ccc(Cl)cc1)CS(=O)(=O)C2)c1ccccc1F`: the survival is inactive: 77%.

Consider `O=C(NCCc1nc2ccccc2n1CCCOc1ccc(Cl)cc1)C1CCCCC1`, for which the survival is active: 24%.

In the case of `Cc1nn2c(C)c(C(=O)NCC(C)c3ccccc3)cnc2c1-c1ccccc1` (stereo unspecified), the survival is inactive: 101%.

On to `COc1ccc(NC(=O)CSc2nc(-c3ccco3)nc3cc(=O)[nH]n23)cc1`, for which the survival is inactive: 79%.

With `CCOC(=O)CN1C(=O)c2cccnc2Oc2ccccc21`, the survival is inactive: 87%.

As to `Cc1cc(C)cc(NC(=O)CSCc2cc(=O)c3ccc(C)c(C)c3[nH]2)c1`, the survival was inactive: 80%.

On to `CNS(=O)(=O)c1cn(CC(=O)N2CCN(c3cc(C)ccc3C)CC2)cc1S(=O)(=O)NC`, for which the survival is inactive: 92%.

Consider `O=c1cc(-c2ccccc2)n2c(SCc3cccc([N+](=O)[O-])c3)nnc2[nH]1`, for which the survival is inactive: 69%.

As for `COc1ccccc1-n1nc(-c2ccccc2)c2cnc3cc(C(F)(F)F)ccc3c21`, the survival is inactive: 81%.

As for `CCOC(=O)c1ccc(NC(=O)COC(=O)c2cn(CC)c3nc(C)ccc3c2=O)cc1`, the survival was inactive: 81%.

On to `Cc1cccc(C)c1OC(=O)CSc1nnc(-c2cccs2)o1`, for which the survival was inactive: 75%.
